The other results are listed elsewhere or left out. At the low end of the ranking the order means little.
What follows are sequences tested against GST-SBP-SLBP (stem-loop binding protein) (UniProt Q14493) (assay: targeted RNA Bind-n-Seq). Conditions: RBNS binding buffer: 25 mM Tris pH 7.5, 150 mM KCl, 3 mM MgCl2, 0.1% Tween, 0.5 mg/mL BSA, 1 mM DTT; 27 nM protein, 750 pM RNA pool; temperature not stated; high values mean tight binding.
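Note: DESeq read counts versus GST-SBP nonspecific binding control pulldown.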

Sequence | binding signal (log2 fold change)
GGUCACGUCUCAAUCAACUCAUCCCCCAGGGAAAUCCCUGGUUUACUCAACAGCUCGCAGUCAAG | -0.00885
GGUCACGUCUCAAUCAACUCAAAAGAGGGGGGGAAAACCCCUUUACCCUCGUAUUCAACAGCUCGCAGUCAAG | -0.357
GGUCACGUCUCAAUCAACUCAAUUCCAGGAGUUUCCUCCUGUAUACUCAACAGCUCGCAGUCAAG | 0.108
GGUCACGUCUCAAUCAACUCUACUUCCAGGGAAAACCCUGGCUAAUUCAACAGCUCGCAGUCAAG | 0.16
GGUCACGUCUCAAUCAACUCUUUCGAGGGGGGGAAAACCCCUUUACCCUCAUCUUCAACAGCUCGCAGUCAAG | 0.144
GGUCACGUCUCAAUCAACUCAUUCUCCAGGGAAACCCCUGGCAAACUCAACAGCUCGCAGUCAAG | -0.0125
GGUCACGUCUCAAUCAACUCAAUUCCCAGGGAAAUCCCUGGCAUACUCAACAGCUCGCAGUCAAG | -0.0497
GGUCACGUCUCAAUCAACUCAAUUCCCAGGGAAAGCCCUGGCUAAUUCAACAGCUCGCAGUCAAG | 0.143
GGUCACGUCUCAAUCAACUCAACUUCCAGGGAAAACCCUGGUAUUCUCAACAGCUCGCAGUCAAG | -0.0572
GGUCACGUCUCAAUCAACUCUAUCUCCAGGGAAACCCCUGGUUAAUUCAACAGCUCGCAGUCAAG | -0.228
GGUCACGUCUCAAUCAACUCAAUCCCCAGGGAAAUCCCUGGCUAUUUCAACAGCUCGCAGUCAAG | 0.193
GGUCACGUCUCAAUCAACUCUCUAGAGGGGGGGAAAACCCCUUUACCCUCCACGUCAACAGCUCGCAGUCAAG | -0.424
GGUCACGUCUCAAUCAACUCAAUCCCCAGGGAAACCCCUGGCAAUUUCAACAGCUCGCAGUCAAG | -0.197
GGUCACGUCUCAAUCAACUCAAUUUCCAGGGAAAUCCCUGGCUUUUUCAACAGCUCGCAGUCAAG | 0.0361
GGUCACGUCUCAAUCAACUCAUUCCCCAGGGAAAACCCUGGCUAAUUCAACAGCUCGCAGUCAAG | -0.181
GGUCACGUCUCAAUCAACUCUUCUUCCAGGGAAAUCCCUGGCUAACUCAACAGCUCGCAGUCAAG | -0.106
GGUCACGUCUCAAUCAACUCUUCGGAGGGGGGGAAAACCCCUUUACCCUCAUUUUCAACAGCUCGCAGUCAAG | 0.0856
GGUCACGUCUCAAUCAACUCCUAAGAGGGGGGGAAAACCCCUUUGCCCUCACCAUCAACAGCUCGCAGUCAAG | -0.181
GGUCACGUCUCAAUCAACUCCCCAGAGGGGGGGAAAACCCCUUUGCCCUCAAAUUCAACAGCUCGCAGUCAAG | -0.155
GGUCACGUCUCAAUCAACUCUACUUCCAGGGAAAACCCUGGCUUUUUCAACAGCUCGCAGUCAAG | -0.369
GGUCACGUCUCAAUCAACUCAAUUUCCAGGGAAAGCCCUGGCAUAGUCAACAGCUCGCAGUCAAG | -0.207
GGUCACGUCUCAAUCAACUCCAAAGAGGGGGGGAAAACCCCUUUGCCCUCGAAAUCAACAGCUCGCAGUCAAG | 0.347
GGUCACGUCUCAAUCAACUCAUCGUCCAGGGAAAGCCCUGGUUAAUUCAACAGCUCGCAGUCAAG | 0.179
GGUCACGUCUCAAUCAACUCUAUUUCAGGAGUUUUCUCCUGUUUACUCAACAGCUCGCAGUCAAG | -0.0454

Sequence | binding signal (log2 fold change)
GGUCACGUCUCAAUCAACUCAUCGGAGGGGGGGAAAACCCCUUUACCCUCAUCCUCAACAGCUCGCAGUCAAG | 0.12
GGUCACGUCUCAAUCAACUCAAUUUCAGGAGUUUUCUCCUGCUAUUUCAACAGCUCGCAGUCAAG | 0.0905
GGUCACGUCUCAAUCAACUCAUUUUCCAGGGAAAGCCCUGGCAUACUCAACAGCUCGCAGUCAAG | -0.0739
GGUCACGUCUCAAUCAACUCAACUUCCAGGGAAAACCCUGGCUAACUCAACAGCUCGCAGUCAAG | 0.131
GGUCACGUCUCAAUCAACUCAAAAGAGGGGGGGAAAACCCCUUUACCCUCCAAUUCAACAGCUCGCAGUCAAG | -0.446
GGUCACGUCUCAAUCAACUCAGUUCCAGGAGUUUUCUCCUGUAUUUUCAACAGCUCGCAGUCAAG | -0.105
GGUCACGUCUCAAUCAACUCUUCUCCCAGGGAAACCCCUGGUAUAUUCAACAGCUCGCAGUCAAG | 0.0902
GGUCACGUCUCAAUCAACUCAAUCGAGGGGGGGAAAACCCCUUUACCCUCAUCUUCAACAGCUCGCAGUCAAG | -0.114
GGUCACGUCUCAAUCAACUCUACUCCCAGGGAAACCCCUGGUUAUCUCAACAGCUCGCAGUCAAG | -0.0302
GGUCACGUCUCAAUCAACUCUUCCUCCAGGGAAAACCCUGGUAUUUUCAACAGCUCGCAGUCAAG | -0.257
GGUCACGUCUCAAUCAACUCUUCGUCCAGGGAAACCCCUGGCAUUUUCAACAGCUCGCAGUCAAG | -0.146
GGUCACGUCUCAAUCAACUCAUCUCCAGGAGUUUCCUCCUGUUAUCUCAACAGCUCGCAGUCAAG | -0.168
GGUCACGUCUCAAUCAACUCUUUCUCAGGAGUUUACUCCUGUUUUCUCAACAGCUCGCAGUCAAG | -0.0657
GGUCACGUCUCAAUCAACUCUAUUUCAGGAGUUUUCUCCUGCUUAUUCAACAGCUCGCAGUCAAG | -0.195
GGUCACGUCUCAAUCAACUCAUCUUCAGGAGUUUCCUCCUGCUAUCUCAACAGCUCGCAGUCAAG | 0.225
GGUCACGUCUCAAUCAACUCUUUCCCCAGGGAAACCCCUGGUUUUCUCAACAGCUCGCAGUCAAG | 0.0834
GGUCACGUCUCAAUCAACUCGUUUUCAGGAGUUUUCUCCUGCUUUCUCAACAGCUCGCAGUCAAG | 0.0452
GGUCACGUCUCAAUCAACUCCCAAGAGGGGGGGAAAACCCCUUUACCCUCAACAUCAACAGCUCGCAGUCAAG | -0.154
GGUCACGUCUCAAUCAACUCAUCCUCAGGAGUUUGCUCCUGUAUUUUCAACAGCUCGCAGUCAAG | 0.0415
GGUCACGUCUCAAUCAACUCCAACGAGGGGGGGAAAACCCCUUUACCCUCACACUCAACAGCUCGCAGUCAAG | -0.197
GGUCACGUCUCAAUCAACUCAACUUCAGGAGUUUGCUCCUGCUUAUUCAACAGCUCGCAGUCAAG | -0.00125
GGUCACGUCUCAAUCAACUCUUCGCCCAGGGAAAGCCCUGGUUAUUUCAACAGCUCGCAGUCAAG | 0.464
GGUCACGUCUCAAUCAACUCUAUCUCCAGGGAAAGCCCUGGUAAAUUCAACAGCUCGCAGUCAAG | -0.147

Source: article PMC5892938
